Results reported in PubChem BioAssay AID1645882 (National Center for Advancing Translational Sciences (NCATS), 2021).
Among all 16,000 compounds or so, about 120 (0.75%) were called active. Another 4% or so got no clear call; they are omitted. Calls come from the whole dose curve; as a rule, active = well fitted inhibition curve with a large enough effect; inconclusive = small, poorly fitted or top-dose-only effect; inactive = no such curve, though single readings can be large or run the other way. This is one part of the list.

Each molecule was assayed against Rap guanine nucleotide exchange factor 3 (Homo sapiens) (UniProt O95398) (assay: Validation qHTS for antagonist of cAMP-regulated guanine nucleotide exchange factor 3 (EPAC1)). Conditions: EPAC1 Rap1B-BODIPY-GDP exchange, fluorescence; series mostly up to 150 µM; activity change, negative = inhibition: at the top concentration.
Sequence of UniProt O95398 (O95398 whole entry, looked up): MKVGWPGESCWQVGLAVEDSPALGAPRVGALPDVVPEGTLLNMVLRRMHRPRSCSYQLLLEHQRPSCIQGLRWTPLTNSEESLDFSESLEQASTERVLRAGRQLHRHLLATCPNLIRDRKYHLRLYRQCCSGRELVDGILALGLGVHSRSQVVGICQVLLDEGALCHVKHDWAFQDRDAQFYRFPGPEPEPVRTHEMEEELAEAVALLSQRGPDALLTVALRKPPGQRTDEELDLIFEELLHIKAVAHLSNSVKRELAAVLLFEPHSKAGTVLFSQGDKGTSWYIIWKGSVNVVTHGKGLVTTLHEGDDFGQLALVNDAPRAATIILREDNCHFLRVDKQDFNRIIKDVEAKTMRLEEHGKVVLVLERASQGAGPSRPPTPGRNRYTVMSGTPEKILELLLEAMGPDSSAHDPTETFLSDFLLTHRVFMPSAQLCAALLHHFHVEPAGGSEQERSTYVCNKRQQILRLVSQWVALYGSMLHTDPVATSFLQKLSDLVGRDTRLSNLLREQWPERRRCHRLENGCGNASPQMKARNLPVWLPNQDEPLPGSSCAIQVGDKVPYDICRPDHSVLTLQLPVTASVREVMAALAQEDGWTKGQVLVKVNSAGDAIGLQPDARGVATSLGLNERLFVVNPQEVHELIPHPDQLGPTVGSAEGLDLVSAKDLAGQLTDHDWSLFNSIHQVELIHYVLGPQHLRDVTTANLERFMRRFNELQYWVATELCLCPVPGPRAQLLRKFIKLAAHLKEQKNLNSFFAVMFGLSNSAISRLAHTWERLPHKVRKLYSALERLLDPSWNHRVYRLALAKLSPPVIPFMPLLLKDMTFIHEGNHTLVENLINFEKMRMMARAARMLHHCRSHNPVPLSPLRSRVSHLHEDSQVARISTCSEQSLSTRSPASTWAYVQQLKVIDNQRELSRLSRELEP
Procedure, shortened: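 Nucleotide exchange followed as fluorescence loss when BODIPY-GDP leaves Rap1B (480 nm excitation, 540 nm emission), read at 5 min intervals over 30 min. Reaction: 100 nM EPAC1, 250 nM RAP1B-BODIPY-GDP, 50 uM GDP; ATA and DMSO define normalization.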
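Note: plate controls were DMSO for no effect and ATA control for full effect; nearly all actives have a fitted effect of over 75% in size.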

Compound | activity change, negative = inhibition
CN1CCN(C2=Cc3ccccc3Oc3ccc(Cl)cc32)CC1 | inactive
COCc1c(C(=O)NC2CCCC2)cnn1-c1nccc(-c2cc(C)sc2C)n1 | inactive: 6.67%
CCC(Cc1c(I)cc(I)c(N)c1I)C(=O)O (stereo unspecified) | inactive
CCC(NC(C)C)C(O)c1ccc(O)c(O)c1 (stereo unspecified) | inactive
CO[C@H]1[C@H](NC(=O)c2ccco2)c2ccccc2C12CCN(Cc1cccn1-c1ccccn1)CC2 | inactive: 1.26%
N#CCCn1c(=O)c(-c2ccc(Cl)cc2)nc2cnc(Nc3ccccc3)nc21 | inactive: 71.4%
CNC(CC(=O)O)C(=O)O (stereo unspecified) | inactive: -0.137%
CCOC(=O)c1ccc(-c2c(-c3ccc4c(c3)OCO4)noc2C)cc1F | inactive: -5.56%
O=C(c1csnn1)N1CCC[C@@]2(CCN(c3ccccc3)C2)C1 | inactive: -7.23%
O=C(c1ccco1)N1CCC2(CCN(Cc3cc(C(F)(F)F)cc(C(F)(F)F)c3)CC2)CC1 | inactive: -13.9%
CC(=O)OCCNC(=O)c1cccnc1 | inactive: -15.1%
CN(C)c1ccc(O)c2c1C[C@H]1C[C@H]3[C@H](N(C)C)C(=O)C(C(N)=O)=C(O)[C@@]3(O)C(=O)C1=C2O | inactive
CN1CCc2cccc3c2[C@H]1Cc1ccc(O)c(O)c1-3 | inactive
COc1ccccc1-c1ccc2ncnc(NCc3cnc(C)cn3)c2c1 | inactive: -20.3%
CCOC(=O)C(C)(C)Oc1ccc(Cl)cc1 | inactive
COc1ccc(OC)c(C(=O)N(Cc2cc3cccc(C)c3nc2N2CCC(O)CC2)C2CC2)c1 | inactive: -24%
c1cnc2c(c1)ccc1cccnc12 | inactive: 8.63% [at 75.8 µM]
NS(=O)(=O)c1cc(-c2nn[nH]n2)c(NCc2cccs2)cc1Cl | inactive: 18.6%
COc1cc2nc(N3CCCC(O)C3)c(CNCc3ccccc3C(F)(F)F)cc2c(OC)c1OC (stereo unspecified) | inactive: 2.65%
CC(C)NC[C@H](O)COc1ccc(CC(N)=O)cc1 | inactive
COc1ccc(-c2nc3cnc(N(C)C)nc3n(Cc3ccc(F)cc3)c2=O)cc1 | inactive: 6.68%
COC(=O)[C@H](CC(C)C)N(Cc1ccccc1)S(=O)(=O)N(Cc1ccc(OC)cc1)[C@@H](CC(C)C)C(=O)OC | inactive: -21.1%
O=C(CCn1c(=O)[nH]c2ccccc21)NCC1Cc2cc(Cl)cc(-c3ccncc3)c2O1 (stereo unspecified) | inactive: 12.8%
O=C(Oc1ccccc1)N1CCC2(CC1)CN(c1ccncc1)C2 | inactive: 9.04%

Compound | activity change, negative = inhibition
Cc1ccccc1-c1nc(NC2CC2)c2ccccc2n1 | inactive: -2.62%
Cn1cccc1C(=O)N1CCC2(CCN(C(=O)Nc3cccc(C#N)c3)CC2)CC1 | inactive: 21.3%
CO[C@@]1(NC(=O)CSCC#N)C(=O)N2C(C(=O)O)=C(CSc3nnnn3C)CS[C@@H]21 | inactive
CCCCCCc1ccc(N2C[C@H](Cc3ccccc3)[C@@H](CC(=O)NCc3ccc(OC)cc3)C2=O)cc1 | inactive: 2.85%
CC(N)=NCCCC[C@@H](N)C(=O)O | inactive: 2.12% [at 75.8 µM]
N=C(N)c1ccc(OCCCOc2ccc(C(=N)N)cc2)cc1 | inactive: 1.56%
COc1ccc2[nH]c(I)c(CCNC(C)=O)c2c1 | inactive
COc1ccc(Oc2ncc3ncc(=O)n(-c4ccc(OC)cc4)c3n2)cc1 | inactive: -5.41%
O=C1Cc2cc(CCN3CCN(c4nsc5ccccc45)CC3)c(Cl)cc2N1 | inactive
CO[C@H]1C=CO[C@@]2(C)Oc3c(C)c(O)c4c(O)c(c5c(nc6cc(C)ccn65)c4c3C2=O)NC(=O)/C(C)=C\C=C[C@H](C)[C@H](O)[C@@H](C)[C@@H](O)[C@@H](C)[C@H](OC(C)=O)[C@@H]1C | inactive: -24.3%
OC[C@H]1O[C@@H]2O[C@H]3[C@H](O)[C@@H](O)[C@@H](O[C@H]4[C@H](O)[C@@H](O)[C@@H](O[C@H]5[C@H](O)[C@@H](O)[C@@H](O[C@H]6[C@H](O)[C@@H](O)[C@@H](O[C@H]7[C@H](O)[C@@H](O)[C@@H](O[C@H]8[C@H](O)[C@@H](O)[C@@H](O[C@H]1[C@H](O)[C@H]2O)O[C@@H]8CO)O[C@@H]7CO)O[C@@H]6CO)O[C@@H]5CO)O[C@@H]4CO)O[C@@H]3CO | inactive: 19.8%
O=c1c(-c2ccccc2)nc2cncnc2n1Cc1ccc(F)cc1 | inactive: -6.97%
Cc1cc(C)n2nc(C(=O)NCC3Cc4cccc(-c5ccc(S(C)(=O)=O)cc5)c4O3)cc2n1 (stereo unspecified) | inactive: -2.18%
Cc1ncc2c(c1CNS(=O)(=O)N(C)C)CCN(C(=O)/C=C/c1ccccc1Cl)C2 | inactive: 11.3%
C[N+](C)(C)CCCCCNCC12CC3CC(CC(C3)C1)C2 | inactive: 12.5%
CCN[C@H]1C[C@H](C)S(=O)(=O)c2sc(S(N)(=O)=O)cc21 | inactive: 1.11%
CCCC(=O)N1CCCN(c2nc(N)c3cc(OC)c(OC)cc3n2)CC1 | inactive: -1.97%
Cc1cc(CNC(=O)c2cnn(-c3ncc4c(n3)-c3ccccc3CCC4)c2C2CC2)on1 | inactive: 10.9%
COC(=O)N1CCC2(CC1)CN(C(=O)Nc1ccccc1)C2 | inactive: 15.7%
Cn1cccc1C(=O)N1CCC[C@@]2(CCN(C(=O)Nc3cccc(C#N)c3)C2)C1 | inactive: 2.76%
O=c1c(-c2ccc(Cl)cc2)nc2cnc(Nc3ccccc3)nc2n1C[C@H]1CCCO1 | inactive: 28.8%
CC(C)[C@H]1COCCS(=O)(=O)N1Cc1cccc([N+](=O)[O-])c1 | inactive: 7.82%
N[C@H](CO)C(=O)O | inactive
CC(C)NC(=O)N1CC2(CCN(C(=O)c3cccn3C)CC2)C1 | inactive: -9.6%

Compound | activity change, negative = inhibition
COc1ccc(-n2c(CNC(=O)c3cccc(OC)c3OC)nnc2SC)cc1 | inactive: 28.6%
CC(=O)SC[C@@H](Cc1ccccc1)C(=O)NCC(=O)OCc1ccccc1 | inactive: -1.37% [at 75.8 µM]
COc1ncc2nc(-c3ccc(F)cc3)c(=O)n(C)c2n1 | inactive: 8.31%
Cc1noc(C)c1-c1nccc(N2CCNCC2)n1 | inactive: 20.8%
COC(=O)C[C@H]1c2ccccc2S(=O)(=O)N1c1cccc(OC)c1 | inactive: -9.57%
NC(Cc1cccc(-c2ccccc2CP(=O)(O)O)c1)C(=O)O (stereo unspecified) | inactive: -1.06% [at 75.8 µM]
O=S(=O)(c1cccc2cnccc12)N1CCNCC1 | inactive: -1.91%
COc1ccccc1C1CN(Cc2cccc3c2OCO3)Cc2ccccc2O1 (stereo unspecified) | inactive: 13.3%
COc1ccc(CN2CC[C@H]3C=CC[C@@H](C(=O)Nc4nccs4)[C@H]3C2=O)cc1OC | inactive: -9.93%
O=C(O)Cc1cccc(-c2cc(CCCCCCc3ccc(O[C@H]4O[C@H](CO)[C@@H](O)[C@H](O)[C@@H]4O)c(-c4cccc(CC(=O)O)c4)c3)ccc2O[C@H]2O[C@H](CO)[C@@H](O)[C@H](O)[C@@H]2O)c1 | inactive: 5.91%
CC(=O)N(O)CCCCCNC(=O)CCC(=O)N(O)CCCCCNC(=O)CCC(=O)N(O)CCCCCN | inactive
Cc1ccc(C)c(S(=O)(=O)NCc2nc(N3CCCC3)c3cc(Cl)ccc3n2)c1 | inactive: -7.21%
Cc1ccccc1-c1ccc2ncnc(N3CCOCC3)c2c1 | inactive: -2.13%
CC(C)(C(=O)c1cccnc1)c1cccnc1 | inactive: 23% [at 75.8 µM]
C[C@@H](c1ncncc1F)C(O)(Cn1cncn1)c1ccc(F)cc1F (stereo partly specified) | inactive: 21.6%
COc1ccc(/C=C/C(=O)CC(=O)/C=C/c2cccc(O)c2OC)cc1O | inactive: 19.2% [at 201 µM]
NCCCCNCCCN | inactive
Cc1cc[n+](C2CCCCC2)cc1 | inactive: 14.6%
Nc1ncn([C@H]2C[C@H](O)[C@@H](CO)O2)c(=O)n1 | inactive: 7.31%
Cc1ncc2c(c1O)COP(=O)(O)OC2 | inactive: 7%
O=C(c1cnn(-c2nccc(-c3ccccc3F)n2)c1C1CC1)N1CCCCC1c1cccnc1 (stereo unspecified) | inactive: 12.1%
CN1CC(=O)NC1=N | inactive: 14.5%
O=C1C(c2[nH]c3ccc(S(=O)(=O)O)cc3c2O)=Nc2ccc(S(=O)(=O)O)cc21 | inactive
CS(=O)(=O)Nc1cccc(-c2nc(N3CCOCC3)c3ccccc3n2)c1 | inactive: 15.7%

Compound | activity change, negative = inhibition
Cc1c(C)c2c(c(C)c1OC(=O)CCC(=O)OCCO)CC[C@@](C)(CCC[C@H](C)CCC[C@H](C)CCCC(C)C)O2 | inactive: -1.01%
O=S1(=O)CCOC[C@H](c2ccccc2)N1Cc1ccccc1 | inactive: -9.69%
CCOC(=O)Cc1cccc(-c2cc(CCCCCCc3ccc(O[C@H]4O[C@H](COC(C)=O)[C@@H](OC(C)=O)[C@H](OC(C)=O)[C@@H]4OC(C)=O)c(-c4cccc(CC(=O)OCC)c4)c3)ccc2O[C@H]2O[C@H](COC(C)=O)[C@@H](OC(C)=O)[C@H](OC(C)=O)[C@@H]2OC(C)=O)c1 | inactive: 16.7%
CN(C)c1ccc(-c2cc(NCc3ccccc3)ncn2)cc1 | inactive: 24.8%
C=CC(C)=C[C@@]1(C)SC(=O)C(C)=C1O | inactive: 3.65% [at 75.8 µM]
CC(=O)Nc1ccc(NC(=S)NC(=O)c2ccc(C(C)(C)C)cc2)cc1 | inactive: 9.43%
O=C1CCN(Cc2ccc(O)cc2)CCN1[C@H](CO)Cc1ccccc1 | inactive: 13.1%
COc1ccc(-c2cc(C)cc3c2OC(CNC(=O)/C=C/c2ccncc2)C3)nn1 (stereo unspecified) | inactive: 15.6%
OCCN1CCN(Cc2ccc3c(c2)CN(Cc2cnc(-c4ccccc4)s2)CCO3)CC1 | inactive: 18%
O=C(CS(=O)Cc1ccco1)NCC=CCOc1cc(CN2CCCCC2)ccn1 (stereo unspecified) | inactive: 13.1%
NC12CC3CC(CC(C3)C1)C2 | inactive
Cc1noc(C)c1C(=O)N1CCC2(CC1)CCN(c1ccncc1)CC2 | inactive: 24.6%
CCCN1CCC(=O)N([C@H](COc2ccccc2)CC(C)C)CC1 | inactive: 10.8%
CC(C)(C)C(=O)NCCCC(=O)O | inactive: 12.3%
O=c1c(-c2cccs2)nc2cnc(Oc3cccc(Cl)c3)nc2n1C[C@H]1CCCO1 | inactive: 10.6%
FC(F)(F)c1ccccc1-c1ccc2ncnc(NC3CCNCC3)c2c1 | inactive: 18.9%
N#C/C(=C\c1ccc(O)c(O)c1)C(=O)c1ccc(O)c(O)c1 | inactive: -6.35% [at 75.8 µM]
CCCCCC(CC(=O)O)C(=O)O (stereo unspecified) | inactive: 14.8%
COc1cc(NS(=O)(=O)c2ccc(N)cc2)nc(C)n1 | inactive: 34.1%
CO[C@H]1[C@H](NC(=O)c2ccsc2)c2ccccc2C12CCN(Cc1c(O)ccc3ccccc13)CC2 | inactive: 7.42%
CO[C@H]1O[C@@H]2O[C@@]3(C)CC[C@H]4[C@H](C)CC[C@@H]([C@H]1C)[C@@]24OO3 | inactive: 15.8%
Cc1ccc(C(=O)Nc2cccc(-c3nc(CNC(=O)c4cccc(C)c4C)c(C)o3)c2)s1 | inactive: 0.382%
O=c1c2ccccc2oc2ccccc12 | inactive: 10.4%
CN(C)c1ncc2nc(-c3ccc(Cl)cc3)c(=O)n(-c3ccccc3)c2n1 | inactive: 1.73%
